Where “and” joins values, the source holds several entries; their conditions need not be identical. Identical values can stand only once. Among all 420,000 compounds or so, about 50,000 (12%) were called active. The inconclusive results got no clear call from the source; some entries with a clear call stand among them for comparison. Calls follow the shape of the dose curve; as a rule, active = well fitted inhibition curve with a large enough effect; inconclusive = small, poorly fitted or top-dose-only effect; inactive = flat fitted curve, though single readings scatter. Potencies beside an inconclusive call are fits to weak or partial responses and may not hold up.
Assay: qHTS for Inhibitors of human tyrosyl-DNA phosphodiesterase 1 (TDP1): qHTS in cells in presence of CPT; also: nearly all actives have a fitted effect of over 55% in size
Details: chicken DT40 Tdp1-/-;hTDP1 cells + 20 nM CPT, ATP luminescence, 48 h; activity change, negative = growth inhibition: at 46.2 µM (top of the series)
Method in brief: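 Cell growth measured by CellTiter-Glo luminescence after a minimum 48 h, 37 C compound exposure with 20 nM CPT in Tdp1-knockout DT40 cells stably expressing hTDP1, seeded 400/well; qHTS titration format.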
% is scaled to controls: 0 for no effect and ±100 for the full control effect; potency is read from the fitted curve at half-maximal effect; tags tell the direction and shape of the fitted curve.

Compound | Potency | activity change, negative = growth inhibition
CCC(CC)C(=O)Nc1cccc(-c2nc3ccccc3o2)c1 | inconclusive: 16.4 µM [inhibitor, single point] | 
COc1ccc(S(=O)(=O)N(CC(=O)N/N=C/c2cccs2)c2cc(C)cc(C)c2)cc1OC | inconclusive: 10.3 µM [inhibitor, partial curve] | 
Cc1nc2ccc(NC(=O)Nc3ccnc4cccnc34)cc2o1 | inconclusive: 26.6 µM [inhibitor, partial curve, poor fit] | 
C[N+]1(CC(=O)c2ccc(Br)cc2)CCOCC1 |  | inactive: 2.77%
CC(C)CC(=O)N1CCN(Cc2ccc(Cl)cc2)CC1 |  | inactive: -3%
O=C(CCc1nnc(COc2ccccc2)o1)NCc1ccccc1 |  | inconclusive: -34.7% [inhibitor]
CC(C)Cn1c(N)c(C(=O)CSc2ccccc2)c(=O)n(C)c1=O | active: 16.4 µM | 
Cc1c2c(n3c(nc4ccccc43)c1C#N)N(CCN(C)C)CC2 |  | inactive: -13.4%
O=C(Cn1c(=O)oc2cc(S(=O)(=O)N3CCCC3)ccc21)N1CCN(c2ccccn2)CC1 |  | inactive: -4.75%
CCC(CC)c1nnc(NC(=O)C2CC(=O)N(CCc3ccc(OC)c(OC)c3)C2)s1 (stereo not drawn) | inconclusive: 14.6 µM [inhibitor, partial curve, poor fit] | 
CC(=O)NS(=O)(=O)c1ccc(NS(=O)(=O)c2ccc(F)cc2)cc1 |  | inactive: 3.08%
CN(CC(=O)Nc1ccc(C#N)cc1)Cc1ccc(Cl)c(Cl)c1 | inconclusive: 18.4 µM [inhibitor, single point] | 
CC12CCC(C(=O)N3CCc4ccccc43)(CC1=O)C2(C)C (stereo not drawn) |  | inactive: -11.9%
Cc1cc(C(=O)N2CCN(c3cccc(Cl)c3)CC2)c2c(C)nn(-c3ccccc3Cl)c2n1 | inconclusive: 20.6 µM [inhibitor, single point] | 
CCc1ccc(C(C)NC(=O)/C=C/c2ccc(Br)cc2)cc1 (stereo not drawn) | inconclusive: 8.2 µM [inhibitor, partial curve, poor fit] | 
COc1ccc(CNC(=O)C2=CC(c3ccc(OC)c(OC)c3)=NS(=O)(=O)N2C)cc1 | inactive and inconclusive: 29.1 µM [inhibitor, single point] | 
O=C(COC(=O)c1cc(Cl)ccc1O)NNC(=O)c1ccccc1F |  | inactive: -9.49%
O=C(COc1ccc(Cl)cc1)Nc1ccccc1C(=O)NCc1cccnc1 | inconclusive: 29.1 µM [inhibitor, single point] | 
COc1ccc(S(=O)(=O)c2c(Nc3ccc(C)cc3C)sc(C(=O)c3ccc(F)cc3)c2N)cc1 | inconclusive: 6.51 µM [inhibitor, partial curve] | 
O=C(CSc1ccccc1)NC1CC1 |  | inactive: -2.41%
CN1CCn2cnc(C(=O)Nc3ccc(CNC(=O)OC(C)(C)C)cc3)c2C1=O | inconclusive: 7.31 µM [inhibitor, partial curve] | 
Cc1c2cnn(CC(=O)NCCCN3CCCCC3)c(=O)c2c(C)n1Cc1ccccc1 |  | inactive: -19.3%
O=C1NCCCC1C(=O)N/N=C/c1ccccc1[N+](=O)[O-] (stereo not drawn) |  | inactive: 11.4%
COc1ccc(CCN(C)C(=O)CCNS(=O)(=O)c2ccccc2C(F)(F)F)cc1OC |  | inactive: -18.4%
CCn1c(-c2cc(-c3cccc(OC)c3)nc3ccccc23)n[nH]c1=S | inconclusive: 18.4 µM [inhibitor, partial curve] | 

Compound | Potency | activity change, negative = growth inhibition
COc1ccc(CC(=S)N2CCOCC2)cc1 | inconclusive: 20.6 µM [inhibitor, single point] | 
COC(=O)c1c(NC(=O)CS(=O)(=O)c2ccccc2)sc(C)c1C | inconclusive: 32.6 µM [inhibitor, single point] | 
CCn1c(SC(=O)NC2CCCCC2)nnc1-c1cccs1 | active: 20.6 µM | 
Cc1cc(/C=C2/C(=N)N3C(c4ccccc4)=CSC3=NC2=O)c(C)n1-c1ccc(Cl)cc1 |  | inactive: 6.01%
O=C(CN1C(=O)S/C(=C\C=C\c2ccccc2)C1=O)NC1CCS(=O)(=O)C1 (stereo not drawn) |  | inconclusive: -30.3% [inhibitor]
COc1ccc(CCNC(=S)Nc2cccc(C)c2)cc1 | inconclusive: 25.9 µM [inhibitor, single point] | 
CSc1ccccc1NC(=O)Nc1ccc(F)c(Cl)c1 | inconclusive: 23.1 µM [inhibitor, single point] | 
CCOC(=O)c1c(NC(=O)COC(=O)c2nc(Cl)ccc2Cl)sc(C(=O)NC)c1C |  | inactive: -5.35%
Cc1ccc(Nc2nc(N)nc(COC(=O)C3=COCCO3)n2)cc1 |  | inactive: 1.9%
NC(=O)c1ccc(NC(=O)COC(=O)/C=C/c2cn(-c3ccccc3)nc2-c2cccnc2)cc1 |  | inactive: -2.64%
CCOCCCn1c(SCC(=O)Nc2ccc3[nH]c(=O)[nH]c3c2)nc2ccccc2c1=O | inconclusive: 29.1 µM [inhibitor, single point] | 
CN1C(=O)Cc2cc(S(=O)(=O)NCc3ccc(Cl)cc3)ccc21 | inconclusive: 16.4 µM [inhibitor, single point] | 
O=C(CCc1cccc(Cl)c1)N1CCCC(Nc2ccccc2)C1 (stereo not drawn) | inconclusive: 29.1 µM [inhibitor, partial curve, poor fit] | 
Cc1cccc(-c2nc(CSCC(=O)N3CCN(c4ccccn4)CC3)c(C)o2)c1 | active: 20.6 µM | 
O=C(Nc1ccccc1Cl)N1CCN(C/C=C/c2ccccc2)CC1 | inconclusive: 18.4 µM [inhibitor, single point] | 
COc1ccccc1CNC(=O)Cn1cccc1C(=O)c1ccccc1C |  | inactive: -22%
O=C(Nc1nccs1)[C@@H]1CC=C[C@@H]2CCN(Cc3ccc(Cl)c(Cl)c3)C(=O)[C@@H]21 | inconclusive: 17.8 µM [inhibitor, single point] | 
CC(=O)Nc1cccc(-c2cc(NC(C)=O)c3ncc(-c4ccc(C(C)=O)cc4)n3c2)c1 | active: 5.17 µM | 
O=C1C(=C(c2ccccc2)c2ccccc2)Nc2ccccc21 | active: 13 µM | 
O=C(Nc1nccs1)c1ccc(CSc2ccccc2)o1 |  | inactive: -13.5%
O=C(CSc1nnnn1-c1cccc2ccccc12)Nc1ccc(N2CCOCC2)c(Cl)c1 | inconclusive: 29.1 µM [inhibitor, single point] | 
CCc1ccc(-n2cc(-c3ccc(F)cc3)[n+]3c2SCCC3)cc1 | active: 4.61 µM | 
COC(=O)c1ccc(CO/N=C/c2ccc(OC)cc2)o1 |  | inactive: 9.65%
CCOC(=O)c1ccc(NC(=S)N(CCCN2CCN(CC)CC2)Cc2cccs2)cc1 | inconclusive: 29.1 µM [inhibitor, single point] | 
O=C(CNS(=O)(=O)c1ccccc1)N/N=C\c1ccc(Cl)cc1 | inconclusive: 29.1 µM [inhibitor, single point] | 

Compound | Potency | activity change, negative = growth inhibition
CSc1ccccc1NC(=O)CN(C)CC(=O)Nc1c(F)cccc1F |  | inactive: -18.7%
CC(C)C(=O)NCC(c1ccc2c(c1)OCO2)N1CCOCC1 (stereo not drawn) |  | inactive: 15.5%
COc1ccc(C=C2CS(=O)(=O)CC(=Cc3ccc(OC)cc3)C2=O)cc1 | active: 1.84 µM | 
O=C(NCc1ccccc1)C(=O)NCC1OCCN1S(=O)(=O)c1ccc2c(c1)OCCO2 (stereo not drawn) |  | inconclusive: -30.5% [inhibitor]
O=C(c1csnn1)N1CCC2(CC1)CCN(c1ccncc1)CC2 | inconclusive: 29.1 µM [inhibitor, single point] | 
COc1ccc(N2CCN(C(CNC(=O)c3ccc4c(c3)OCO4)c3ccco3)CC2)cc1 (stereo not drawn) | inconclusive: 29.1 µM [inhibitor, single point] | 
O=C(CCC1CCCC1)NCCCNC(=O)CCC1CCCC1 |  | inactive: 1.03%
COc1ccc(C2=NS(=O)(=O)N(C)C(C(=O)N3CCN(C)CC3)=C2)cc1 |  | inactive: -21.1%
COc1ccc(NC(=S)NNc2ccc([N+](=O)[O-])cc2S(=O)(=O)Nc2ccc(C)cc2C)cc1 |  | inactive: -21.5%
CC1CN(Cc2cc(=O)[nH]c(C3CC3)n2)CC(C)O1 (stereo not drawn) | inconclusive: 6.51 µM [inhibitor, single point] | 
CCN(CC)CCN(Cc1cc2cccc(C)c2[nH]c1=O)C(=S)Nc1ccccc1 | inconclusive: 20.6 µM [inhibitor, single point] | 
CC(OC(=O)c1cccs1)C(=O)NCc1ccco1 (stereo not drawn) |  | inactive: -15.4%
Cc1cc(C)cc(C(=O)NCCc2csc(-c3ccc(C(F)(F)F)cc3)n2)c1 | inconclusive: 18.4 µM [inhibitor, single point] | 
OCCNc1ncnc2c1sc1nc(N3CCOCC3)c3c(c12)CCC3 | inconclusive: 20.6 µM [inhibitor, partial curve] | 
CCC(Sc1nnc2c(n1)[nH]c1ccccc12)C(=O)Nc1ccccc1OC (stereo not drawn) | inconclusive: 29.1 µM [inhibitor, single point] | 
CCc1ccccc1S(=O)(=O)Cc1ccc(C(=O)NCCc2ccc(C)cc2)o1 | inconclusive: 29.1 µM [inhibitor, single point] | 
Cc1ccc(S(=O)(=O)N2CCN(C(=O)c3ccccc3OCc3c(C)noc3C)CC2)cc1C | inconclusive: 11.6 µM [inhibitor, partial curve] | 
CC1CCN(C(=O)COC(=O)CNC(=O)C23CC4CC(CC(C4)C2)C3)CC1 |  | inactive: 3.32%
CC(Sc1nc2cc([N+](=O)[O-])ccc2n1-c1cccc(C(F)(F)F)c1)C(=O)NC(N)=O (stereo not drawn) | inconclusive: 29.1 µM [inhibitor, single point] | 
COc1ccccc1N1CCN(C(=O)CCC(=O)N2CCN(c3ccccc3OC)CC2)CC1 |  | inactive: -29.3%
Cc1ncc2c(c1CNC(=O)/C=C/c1cccs1)CCN(C(=O)C1CC(=O)OC13CCCCC3)C2 (stereo not drawn) |  | inactive: 8.35% [at 9.04 µM]
CC(C)NC(=O)NC(=O)CN1C(=O)NC(Cc2c[nH]c3ccccc23)C1=O (stereo not drawn) |  | inactive: -10.6%
Cc1ccc(C)c(S(=O)(=O)N2CCN(C(=O)c3cnccn3)CC2)c1 |  | inactive: -17.1%

Reference: PubChem BioAssay AID686979 (National Center for Advancing Translational Sciences (NCATS), 2013)
